These are yes or no findings as the source states them, for the method shown. In cells and extracts the contact can be indirect. Some binding calls cover weakened binding; strength is not graded here.

Sequences of proteins named here, by UniProt entry; tags and fusion partners are left off. A change or cut given only in a name is not applied to a line headed by its entry.
UniProt Q93008: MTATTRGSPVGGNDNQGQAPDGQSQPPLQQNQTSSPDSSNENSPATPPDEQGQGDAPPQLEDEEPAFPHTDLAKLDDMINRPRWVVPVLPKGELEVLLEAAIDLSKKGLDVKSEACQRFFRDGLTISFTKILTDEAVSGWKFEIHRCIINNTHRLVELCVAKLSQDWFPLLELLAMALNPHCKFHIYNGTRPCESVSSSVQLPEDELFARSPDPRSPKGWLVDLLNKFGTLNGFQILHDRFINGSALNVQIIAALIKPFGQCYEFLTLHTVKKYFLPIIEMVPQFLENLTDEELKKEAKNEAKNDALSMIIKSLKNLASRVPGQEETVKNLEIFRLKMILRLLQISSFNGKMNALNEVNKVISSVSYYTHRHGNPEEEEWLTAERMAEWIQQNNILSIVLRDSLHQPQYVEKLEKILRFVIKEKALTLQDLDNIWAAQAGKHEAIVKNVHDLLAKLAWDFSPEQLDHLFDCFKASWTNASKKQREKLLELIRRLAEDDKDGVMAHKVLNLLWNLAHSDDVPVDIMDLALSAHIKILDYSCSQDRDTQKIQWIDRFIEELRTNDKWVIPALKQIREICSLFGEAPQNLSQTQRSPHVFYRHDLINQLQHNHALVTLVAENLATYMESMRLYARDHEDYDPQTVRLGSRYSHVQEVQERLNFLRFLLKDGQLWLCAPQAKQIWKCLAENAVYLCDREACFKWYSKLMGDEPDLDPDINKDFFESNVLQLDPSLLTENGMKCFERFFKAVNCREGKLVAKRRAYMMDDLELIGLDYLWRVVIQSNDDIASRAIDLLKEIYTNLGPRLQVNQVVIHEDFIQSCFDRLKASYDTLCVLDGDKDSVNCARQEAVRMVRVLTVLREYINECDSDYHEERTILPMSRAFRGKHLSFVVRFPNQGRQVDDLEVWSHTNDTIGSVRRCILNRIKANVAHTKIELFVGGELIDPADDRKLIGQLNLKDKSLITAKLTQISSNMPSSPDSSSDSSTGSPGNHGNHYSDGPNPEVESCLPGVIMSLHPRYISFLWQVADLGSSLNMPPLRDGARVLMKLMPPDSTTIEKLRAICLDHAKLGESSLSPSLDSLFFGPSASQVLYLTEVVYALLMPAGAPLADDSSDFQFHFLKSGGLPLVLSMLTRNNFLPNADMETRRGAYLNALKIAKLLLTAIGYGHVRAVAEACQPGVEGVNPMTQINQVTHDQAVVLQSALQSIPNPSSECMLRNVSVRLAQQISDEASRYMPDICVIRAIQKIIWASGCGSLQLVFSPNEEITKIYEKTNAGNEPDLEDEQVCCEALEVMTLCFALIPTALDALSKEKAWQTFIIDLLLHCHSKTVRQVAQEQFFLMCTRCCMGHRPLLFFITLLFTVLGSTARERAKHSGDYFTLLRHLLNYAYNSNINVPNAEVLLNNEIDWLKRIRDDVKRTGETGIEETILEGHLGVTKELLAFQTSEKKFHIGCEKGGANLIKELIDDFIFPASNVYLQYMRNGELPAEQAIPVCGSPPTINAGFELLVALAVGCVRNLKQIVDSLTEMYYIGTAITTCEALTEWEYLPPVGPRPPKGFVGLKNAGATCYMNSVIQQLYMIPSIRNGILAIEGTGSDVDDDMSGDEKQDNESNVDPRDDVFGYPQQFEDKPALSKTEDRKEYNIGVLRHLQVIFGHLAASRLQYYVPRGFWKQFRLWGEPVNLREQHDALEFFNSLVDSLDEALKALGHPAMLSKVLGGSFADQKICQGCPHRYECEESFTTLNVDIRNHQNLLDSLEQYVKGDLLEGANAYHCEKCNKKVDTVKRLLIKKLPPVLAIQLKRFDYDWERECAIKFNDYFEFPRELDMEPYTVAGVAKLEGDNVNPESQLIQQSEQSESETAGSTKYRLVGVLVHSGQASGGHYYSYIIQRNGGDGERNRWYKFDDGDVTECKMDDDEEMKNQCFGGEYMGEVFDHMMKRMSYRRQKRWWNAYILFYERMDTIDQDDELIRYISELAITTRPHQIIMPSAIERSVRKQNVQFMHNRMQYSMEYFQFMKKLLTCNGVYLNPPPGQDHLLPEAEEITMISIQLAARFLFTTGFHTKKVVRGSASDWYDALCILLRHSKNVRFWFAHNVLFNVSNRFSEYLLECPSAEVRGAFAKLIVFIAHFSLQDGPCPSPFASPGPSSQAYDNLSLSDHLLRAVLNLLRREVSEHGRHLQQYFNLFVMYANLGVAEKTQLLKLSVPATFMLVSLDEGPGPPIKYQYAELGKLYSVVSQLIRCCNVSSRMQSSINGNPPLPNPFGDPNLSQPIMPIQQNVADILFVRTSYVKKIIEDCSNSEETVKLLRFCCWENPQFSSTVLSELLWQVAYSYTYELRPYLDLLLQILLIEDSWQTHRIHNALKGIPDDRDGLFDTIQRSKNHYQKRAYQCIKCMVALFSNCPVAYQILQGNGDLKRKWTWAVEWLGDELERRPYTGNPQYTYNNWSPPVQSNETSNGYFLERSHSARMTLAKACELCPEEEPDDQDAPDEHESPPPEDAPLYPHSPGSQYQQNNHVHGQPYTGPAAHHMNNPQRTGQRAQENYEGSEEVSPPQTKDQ
UniProt Q99814: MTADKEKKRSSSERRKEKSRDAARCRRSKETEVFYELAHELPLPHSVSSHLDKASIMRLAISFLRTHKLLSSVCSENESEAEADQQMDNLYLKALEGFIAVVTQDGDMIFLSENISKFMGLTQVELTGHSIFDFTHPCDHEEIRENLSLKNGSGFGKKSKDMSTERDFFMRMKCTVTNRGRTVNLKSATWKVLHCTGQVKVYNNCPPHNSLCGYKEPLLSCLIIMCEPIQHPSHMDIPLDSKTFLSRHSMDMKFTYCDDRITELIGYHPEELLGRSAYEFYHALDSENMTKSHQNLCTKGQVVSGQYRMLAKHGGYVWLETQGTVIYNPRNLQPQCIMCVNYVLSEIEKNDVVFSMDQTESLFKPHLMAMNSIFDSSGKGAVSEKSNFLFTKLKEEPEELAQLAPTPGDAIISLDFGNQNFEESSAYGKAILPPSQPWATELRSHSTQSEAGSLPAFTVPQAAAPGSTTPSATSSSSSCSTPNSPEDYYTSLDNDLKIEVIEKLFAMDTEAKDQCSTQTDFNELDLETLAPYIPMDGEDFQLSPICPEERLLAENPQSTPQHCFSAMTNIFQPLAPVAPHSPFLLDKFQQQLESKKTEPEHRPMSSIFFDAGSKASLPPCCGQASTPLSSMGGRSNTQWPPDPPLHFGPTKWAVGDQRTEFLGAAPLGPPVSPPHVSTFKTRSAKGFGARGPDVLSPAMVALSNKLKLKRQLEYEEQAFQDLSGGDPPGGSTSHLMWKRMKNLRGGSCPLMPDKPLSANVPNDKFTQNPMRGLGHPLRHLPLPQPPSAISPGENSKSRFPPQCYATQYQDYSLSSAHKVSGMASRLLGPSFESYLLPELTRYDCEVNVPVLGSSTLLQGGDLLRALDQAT
UniProt P97481: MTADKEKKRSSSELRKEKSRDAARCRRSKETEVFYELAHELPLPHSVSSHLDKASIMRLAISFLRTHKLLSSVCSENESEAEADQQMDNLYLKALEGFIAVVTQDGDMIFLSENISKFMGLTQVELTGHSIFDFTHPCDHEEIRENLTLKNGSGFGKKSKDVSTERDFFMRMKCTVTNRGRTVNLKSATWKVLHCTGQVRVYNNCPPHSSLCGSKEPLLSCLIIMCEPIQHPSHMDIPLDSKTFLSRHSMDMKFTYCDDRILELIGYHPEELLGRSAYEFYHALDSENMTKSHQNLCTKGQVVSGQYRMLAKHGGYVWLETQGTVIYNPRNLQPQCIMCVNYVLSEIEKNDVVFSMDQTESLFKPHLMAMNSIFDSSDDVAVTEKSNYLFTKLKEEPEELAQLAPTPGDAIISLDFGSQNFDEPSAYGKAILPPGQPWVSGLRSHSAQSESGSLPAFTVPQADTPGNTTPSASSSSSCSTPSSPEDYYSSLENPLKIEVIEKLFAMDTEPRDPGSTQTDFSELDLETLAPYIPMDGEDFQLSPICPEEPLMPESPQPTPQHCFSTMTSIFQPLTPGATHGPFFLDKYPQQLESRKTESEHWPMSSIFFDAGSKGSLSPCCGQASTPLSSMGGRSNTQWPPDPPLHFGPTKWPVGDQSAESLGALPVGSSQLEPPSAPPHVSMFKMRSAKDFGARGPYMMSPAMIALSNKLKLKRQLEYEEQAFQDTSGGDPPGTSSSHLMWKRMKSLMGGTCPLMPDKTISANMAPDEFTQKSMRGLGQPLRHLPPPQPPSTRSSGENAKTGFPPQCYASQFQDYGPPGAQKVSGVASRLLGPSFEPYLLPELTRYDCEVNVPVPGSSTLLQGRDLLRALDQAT

Assay [1] concerns the target Flag-tagged full length USP9X wild-type (UniProt Q93008). Put plainly: co-IP; over-expressed Flag-USP9X (whole or truncated) and HA-HIF-2α (whole, truncated or 2dPA mutant); HEK293T named for Fig. 3B, C; lysis buffer 50 mM Tris-HCl pH 7.4, 150 mM NaCl, 5 mM EDTA, 0.5% NP-40; immunoblot.
The target of assay [2] is USP9X (endogenous, CAOV3) (human (endogenous in CAOV3)) (UniProt Q93008). Put plainly: proximity ligation; Duolink PLA on fixed, permeabilised CAOV3 and ID8 cells, with or without TGF-β1 (5 ng/mL) for 24 h.
The target is the same in assay [3]. Put plainly: co-IP; endogenous proteins in CAOV3 and ID8 lysates; antibody on protein A/G agarose; lysis buffer 50 mM Tris-HCl pH 7.4, 150 mM NaCl, 5 mM EDTA, 0.5% NP-40; also after TGF-β1 (5 ng/mL) and/or 1% O2 for 24 h.
Assay [4] addresses USP9X (endogenous, ID8) (mouse (endogenous in ID8)) (UniProt P70398). Put plainly: proximity ligation; Duolink PLA on fixed, permeabilised CAOV3 and ID8 cells, with or without TGF-β1 (5 ng/mL) for 24 h.
Assay [5] shares this target. Put plainly: co-IP; endogenous proteins in CAOV3 and ID8 lysates; antibody on protein A/G agarose; lysis buffer 50 mM Tris-HCl pH 7.4, 150 mM NaCl, 5 mM EDTA, 0.5% NP-40; also after TGF-β1 (5 ng/mL) and/or 1% O2 for 24 h.

Regarding “HA-tagged HIF-2α P405A/P531A (2dPA) mutant (from UniProt Q99814 1-870)”, in assay [1], the binding result is listed as “no binding”.
Same read-out and setting: the entry for “HA-tagged full-length HIF-2α (from UniProt Q99814 1-870)” is “binds”.
As to “HIF-2α (endogenous, CAOV3) (from UniProt Q99814 1-870)”, the binding result in assay [2] and in assay [3] was “binds” in each case.
In the case of “HIF-2α (endogenous, ID8) (from UniProt P97481 1-874)”, the binding entry in assay [4] and in assay [5] was “binds” in each case.

Source of the values: PMC12006517.
